Assay results from article PMC4336329 (PLoS ONE, 2015).
The whole screen tested about 310,000 compounds, of which about 2,200 (0.71%) showed an effect of 50% or more. Effects have a minus sign here. The list shows a part of the results.

What follows are compounds tested against human ether-à-go-go-related gene (hERG) potassium channel (human, UniProt Q12809) (assay: primary screen, population patch clamp on CHO cells stably expressing hERG).
Chain of human ether-à-go-go-related gene (hERG) potassium channel (Q12809 whole entry, looked up): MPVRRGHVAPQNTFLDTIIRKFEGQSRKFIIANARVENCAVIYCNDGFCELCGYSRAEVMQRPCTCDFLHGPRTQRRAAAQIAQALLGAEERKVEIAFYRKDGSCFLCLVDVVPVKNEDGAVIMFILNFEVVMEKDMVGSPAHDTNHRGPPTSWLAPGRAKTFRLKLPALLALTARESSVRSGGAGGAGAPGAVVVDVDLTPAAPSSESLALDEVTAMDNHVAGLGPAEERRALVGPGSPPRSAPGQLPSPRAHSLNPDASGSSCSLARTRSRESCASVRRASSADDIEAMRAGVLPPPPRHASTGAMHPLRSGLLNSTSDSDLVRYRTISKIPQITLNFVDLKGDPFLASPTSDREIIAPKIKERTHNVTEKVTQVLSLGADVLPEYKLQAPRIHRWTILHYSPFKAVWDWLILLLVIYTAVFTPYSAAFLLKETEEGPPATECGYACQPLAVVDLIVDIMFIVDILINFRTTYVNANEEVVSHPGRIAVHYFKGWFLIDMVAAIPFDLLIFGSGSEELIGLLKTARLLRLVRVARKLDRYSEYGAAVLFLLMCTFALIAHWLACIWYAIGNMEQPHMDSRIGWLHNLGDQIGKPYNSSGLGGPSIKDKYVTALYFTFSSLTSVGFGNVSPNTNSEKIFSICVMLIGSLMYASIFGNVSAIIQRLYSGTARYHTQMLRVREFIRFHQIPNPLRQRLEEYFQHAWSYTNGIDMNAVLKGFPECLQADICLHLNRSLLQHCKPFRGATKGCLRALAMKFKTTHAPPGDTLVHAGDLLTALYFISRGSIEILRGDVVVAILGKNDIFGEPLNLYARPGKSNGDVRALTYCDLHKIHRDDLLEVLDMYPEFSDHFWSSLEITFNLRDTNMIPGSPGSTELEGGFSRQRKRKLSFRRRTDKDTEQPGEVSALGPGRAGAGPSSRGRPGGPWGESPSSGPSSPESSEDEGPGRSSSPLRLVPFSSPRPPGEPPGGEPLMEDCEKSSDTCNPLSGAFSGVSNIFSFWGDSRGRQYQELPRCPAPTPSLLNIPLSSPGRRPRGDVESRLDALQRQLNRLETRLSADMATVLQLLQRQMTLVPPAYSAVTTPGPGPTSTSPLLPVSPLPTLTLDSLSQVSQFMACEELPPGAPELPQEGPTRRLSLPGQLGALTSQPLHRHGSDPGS

| SMILES | hERG current change (%, negative = inhibition) at 1uM |
| --- | --- |
| CC(Sc1nnc2c(n1)C1CCC2(C)C1(C)C)C(=O)Nc1ccccc1 (centres unmarked) | 6.7% |
| CCOc1ccc2[nH]c3c(N4CCC5(CC4)OCCO5)ncnc3c2c1 | 14.6% |
| O=C1OC(c2ccccc2)=N/C1=C\C=C\c1ccco1 | 11.5% |
| CCN(CC)c1ncnnc1-c1ccccc1 | 9.64% |
| Cc1ccc(S(=O)(=O)NCCC(=O)OCC(=O)N2CCCC2=O)cc1C | 8.35% |
| Cc1ccccc1NCN1C(=O)C2CCC(C)(C1=O)C2(C)C (centres unmarked) | 6.18% |
| Cc1ccc(S(=O)(=O)Nc2ccccc2C(=O)Nc2ccc(S(=O)(=O)Nc3nccc(C)n3)cc2)cc1 | 12.3% |
| CCN(CC)c1ccc(/C=N/NC(=S)NCc2ccc(OC)cc2)cc1 | 14.5% |
| C=CCOc1c(CNC2CCCC2)cc(Cl)cc1OC.Cl | 5.81% |
| COc1ccc(C(C)(C)C)cc1NC(=O)c1cc(S(=O)(=O)N(C)C)ccc1N1CCCC1 | 0.432% |
| O=C(N[C@@H](Cc1ccccc1)C(=O)O)c1ccncc1.O=C(O)C(F)(F)F | 8.65% |
| S=c1[nH]nc(-c2cccs2)n1/N=C/c1cccs1 | 11.5% |
| c1nc(COc2nsnc2N2CCOCC2)cs1 | 0.141% |
| Cc1ccc(SCCN2CCC(C(C)(C)C)CCC2=O)cc1 (centres unmarked) | 11.6% |
| Cc1c(-c2nc3ccccc3[nH]2)cnn1C | 11.4% |
| Cc1c(Cl)cccc1NC(=O)c1ccco1 | 12.6% |
| COc1ccc(CCNC(=O)CCn2c(SCC#N)nc3ccccc3c2=O)cc1OC | 2.94% |
| Nc1nnnn1/N=C/c1cc(Cl)ccc1O | 15.2% |
| CCOC(=O)C(C)Sc1nnc2c3ccccc3n(C)c2n1 (centres unmarked) | 8.45% |
| O=C(NC1CC1)c1ccc(Cl)c(S(=O)(=O)N2CCOCC2)c1 | 6.71% |
| CCOc1cc(C(C(=O)NCC2CCCO2)N(C(=O)Cn2nnc3ccccc32)c2ccccc2C)ccc1O (centres unmarked) | 20.8% |
| CCCCc1nc(NCc2ccccc2)c(C#N)c2c1COC(C)(C)C2 | 10.9% |

| SMILES | hERG current change (%, negative = inhibition) at 1uM |
| --- | --- |
| CCCCN(C(=O)C1CCCC1)c1c(N)n(CC(C)C)c(=O)[nH]c1=O | 7.38% |
| Cc1nn(CC(=O)N(C)C)c(=O)c2ccccc12 | 17.6% |
| Cc1ccc(CNC(=O)CCS(=O)(=O)c2ccc3c(c2)NC(=O)C(C)S3)cc1 (centres unmarked) | 14.7% |
| CN1CCN(NC(=O)/C=C/c2cccc(Cl)c2)CC1 | 9.72% |
| O=C1NN(c2ccc(F)c(Cl)c2)C(=O)/C1=C\c1cccc(OC(=O)c2cccs2)c1 | 7.88% |
| Cc1cccc(/C=C/c2onc(C)c2S(=O)(=O)N2CCC(C(=O)NC(C)C)CC2)c1 | -1.56% |
| COc1cc(C2C(C#N)=C(N)Oc3c2c(-c2ccccc2)nn3-c2ccccc2)cc(OC)c1OC (centres unmarked) | -9.81% |
| O=C(CCCn1c(=S)[nH]c2cc3c(cc2c1=O)OCO3)N1CCc2ccccc2C1 | 5.44% |
| CCc1ccc(NC(=S)N2CCN(c3cccc(C(F)(F)F)c3)CC2)cc1 | 5.18% |
| CC1CCN(C(=O)c2ccc3c(Cl)c4c(nc3c2)CCCC4)CC1 | 5.91% |
| O=C(Cn1cc(C(F)(F)F)cc(Cl)c1=O)NCc1ccccc1 | 19.7% |
| Cc1cc(C)nc(/N=C2\NC(=O)CC3C(=O)NCCN23)n1 (centres unmarked) | 13.1% |
| COC(=O)CSc1nnc(-c2cccnc2)o1 | 16.7% |
| CCOc1ccc(NC(=O)NC(C)CC)cc1 (centres unmarked) | 12.4% |
| Cc1noc(C)c1C(=O)N(CC(C)C)c1nc2ccccc2s1 | 7.73% |
| Cc1ccccc1Cn1cc(NC(=O)c2noc3c2CC(C(C)(C)C)CC3)cn1 (centres unmarked) | 5.76% |
| C=C1[C@H]2C[C@H]3[C@H]4N5C[C@]6(C)CCC[C@]47[C@H]([C@H]2O)[C@]3(C[C@]5(O)[C@H]67)[C@@H]1O | 9.03% |
| O=C1NC(=O)N(Cc2ccc(F)cc2)C(=O)/C1=C\c1ccoc1 | 10.4% |
| S=c1[nH]c2cc(Cl)c3cccnc3c2o1 | 17.6% |
| CN1CCN(C(=O)C2=C[C@H](C(C)(C)C)C[C@H](OCCCCO)O2)CC1 | 5.72% |
| COc1cc(/C=N/n2cnnc2)ccc1OC(=O)c1cccnc1 | 7.19% |
| CC(C)N1CCN(C2CSCCSC2)CC1CCO (centres unmarked) | 7.25% |
